# The campaign covered roughly 310,000 compounds. About 14,000 (4.5%) showed an effect of 50% or more. Effects have a minus sign here. Some of the results follow.
# Target: human ether-à-go-go-related gene (hERG) potassium channel (human, UniProt Q12809)
# Test: primary screen, population patch clamp on CHO cells stably expressing hERG
# 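Further: peak tail current of the secondary pulse compared with the same well before compound.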
# Sequence of human ether-à-go-go-related gene (hERG) potassium channel (Q12809 whole entry, looked up): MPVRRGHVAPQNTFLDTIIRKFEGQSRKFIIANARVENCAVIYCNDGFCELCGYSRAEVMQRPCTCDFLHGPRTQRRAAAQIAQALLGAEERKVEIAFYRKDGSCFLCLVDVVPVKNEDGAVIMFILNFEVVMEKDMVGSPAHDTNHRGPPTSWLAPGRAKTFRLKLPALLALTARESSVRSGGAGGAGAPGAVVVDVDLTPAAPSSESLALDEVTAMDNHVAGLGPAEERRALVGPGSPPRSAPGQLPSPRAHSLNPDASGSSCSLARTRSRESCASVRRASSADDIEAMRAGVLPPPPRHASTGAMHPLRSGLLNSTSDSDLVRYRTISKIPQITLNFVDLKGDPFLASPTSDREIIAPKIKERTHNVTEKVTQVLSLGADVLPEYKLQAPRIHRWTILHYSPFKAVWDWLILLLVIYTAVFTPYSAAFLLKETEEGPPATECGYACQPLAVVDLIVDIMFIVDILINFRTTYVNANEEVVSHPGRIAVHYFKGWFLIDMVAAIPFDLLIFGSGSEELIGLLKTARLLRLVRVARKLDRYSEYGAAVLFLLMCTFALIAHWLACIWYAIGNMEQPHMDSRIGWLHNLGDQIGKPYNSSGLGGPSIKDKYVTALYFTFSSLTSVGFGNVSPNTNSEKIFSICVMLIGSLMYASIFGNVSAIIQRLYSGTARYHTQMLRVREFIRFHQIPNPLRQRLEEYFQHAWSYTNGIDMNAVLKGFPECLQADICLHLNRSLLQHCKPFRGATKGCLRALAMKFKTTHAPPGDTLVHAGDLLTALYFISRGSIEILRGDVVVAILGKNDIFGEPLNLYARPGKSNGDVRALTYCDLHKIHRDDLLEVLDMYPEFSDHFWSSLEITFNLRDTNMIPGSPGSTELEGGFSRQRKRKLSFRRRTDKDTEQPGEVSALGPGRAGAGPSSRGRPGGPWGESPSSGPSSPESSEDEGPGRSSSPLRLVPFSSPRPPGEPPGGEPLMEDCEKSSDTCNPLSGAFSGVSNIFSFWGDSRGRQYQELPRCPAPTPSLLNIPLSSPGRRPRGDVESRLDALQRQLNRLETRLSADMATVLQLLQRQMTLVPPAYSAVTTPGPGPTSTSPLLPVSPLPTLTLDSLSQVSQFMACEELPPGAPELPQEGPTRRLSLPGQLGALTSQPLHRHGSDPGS
row,SMILES,"hERG current change (%, negative = inhibition) at 10uM [%]"
1,O=C(c1ccc(S(=O)(=O)N2CCCCC2)cc1)N1CCCc2ccccc21,2.76
2,Cc1cc(C(=O)CSc2nnc(N)s2)c(C)n1CCc1ccc(F)cc1,-6.89
3,COc1cccc(C(=O)NNC(=O)C(=O)Nc2ccc(OC)cc2OC)c1,9
4,O=C(C1CCCN1C(=O)c1cccs1)N1CCN(Cc2ccc3c(c2)OCO3)CC1 (stereo not drawn),-6.29
5,COc1ccccc1N1CCN(C(=O)c2oc3c(c2C)C(=O)CC(C)(C)C3)CC1,10.2
6,COc1ccc(C(=O)N(C)CCCC2CCCC2)cc1OC1CCN(C(C)=O)CC1,-32.2
7,C=CCOC(=O)C1=C(C)NC(SCC(N)=O)=C(C#N)C1c1ccc(C)cc1 (stereo not drawn),-9.19
8,Cc1ccc(NC(=O)C2CCN(S(=O)(=O)c3cccc(C(F)(F)F)c3)CC2)nc1,5.17
9,O=C(Nc1ccc(Br)cc1)c1cccc(-n2cnnn2)c1,2.19
10,NS(=O)(=O)c1ccc(CCNC(=O)c2cnccn2)cc1,15.2
11,Cc1cccc(-c2nc(CSCC(=O)N3CCN(c4ccccn4)CC3)c(C)o2)c1,-41.2
12,COc1ccc(C(=O)NNC(=O)C2=NN(c3ccccc3)C(=O)CC2)cc1,8.1
13,CCn1c(SCC(=O)N/N=C/C=C/c2ccccc2[N+](=O)[O-])nnc1-c1ccc(Cl)cc1,-15.6
14,COc1ccc(NC(=O)N2CCCc3ccccc32)c(OC)c1,-9.58
15,Cc1ccc(OCc2nnc(NC(=O)OCC(C)C)s2)c(C)c1,21
16,Cc1cc2cc3c(cc2nc1SCC(=O)O)CCC3,-0.223
17,O=C(CN1CCN(Cc2ccccc2)CC1)Nc1ccc(F)c(F)c1.O=C(O)C(=O)O,-57.1
18,COc1ccc(S(=O)(=O)NCC2CCCN(C(=O)c3cccnc3C)C2)cc1 (stereo not drawn),28.1
19,COCCNC(=O)CN1CCOc2ccccc21,-0.989
20,O=S(=O)(/N=C(/c1ccccc1Cl)N1CCOCC1)c1ccccc1,8.34
21,c1ccc(Cn2ncc3c(Nc4ccccc4)ncnc32)cc1,6.01
22,CC(NC(=O)c1ccc(Br)s1)C1CCCO1 (stereo not drawn),7.48
23,C=C(C)[C@H]1CC=C(C)/C(=N/NC(=O)CNc2ccccc2OC)C1,20.4

row,SMILES,"hERG current change (%, negative = inhibition) at 10uM [%]"
1,NNC(=O)c1cccc(COc2ccccc2Br)c1,-4.08
2,CC(=O)c1sc(NC(=O)CCCOc2ccc(Cl)cc2)nc1C,14.7
3,CCOc1cccc(/C=N/NC(=S)NCCN2CCOCC2)c1O,26.4
4,COC(=O)[C@@H]1CCCN1C(=O)c1ccc(OC2CCN(Cc3ccccn3)CC2)cc1,20.7
5,O=C(CSc1ccc(-c2ccco2)nn1)N1CCCC1,-8.96
6,Cc1ccccc1CNc1ccc(C(CC(N)=O)NC(=O)c2ccc(Br)cc2)cc1[N+](=O)[O-] (stereo not drawn),18.3
7,CCOc1ccccc1-c1nc(C(N)=O)c2[nH]c(=O)n(-c3cccc(C)c3)c2n1,-27.1
8,Cc1cc(C)nc(Nc2n[nH]c(COc3ccccc3)n2)n1,6.41
9,O=C(NCCN1CCN(c2ccccc2)CC1)Nc1cccc(Br)c1,-58.1
10,O=C(c1ccco1)c1nnn(Cc2ccccc2)c1-c1ccccc1,-10.7
11,O=C1c2ccc3c4c(ccc(c24)C(=O)N1c1cccc(O)c1)C(=O)N(c1cccc(O)c1)C3=O,8.86
12,CC(=O)C1=C(C)OC(N)=C(C#N)C1c1cccc([N+](=O)[O-])c1 (stereo not drawn),7.17
13,Cc1cccc2c(N=NC(=O)C(C)n3cnc4ccccc4c3=O)c(O)[nH]c12 (stereo not drawn),-28.9
14,Cc1ccc(C)c(OCC(O)CN2C(C)CCCC2C)c1.Cl (stereo not drawn),-67.9
15,CSc1nc2n(n1)C(c1ccccn1)C1=C(CC(C)(C)CC1=O)N2 (stereo not drawn),11.2
16,O=c1nc(N2CCCCC2)nc(Nc2ccccc2)[nH]1,-17.6
17,Cc1cc(C)cc(N(C(=O)c2snc(C(N)=O)c2N)C(C(=O)NCC2CCCO2)c2cccs2)c1 (stereo not drawn),-18.7
18,COc1ccc(CCNC(=O)C(=O)NCC2OCCN2S(=O)(=O)c2ccc(OC)c(OC)c2)cc1OC (stereo not drawn),9.05
19,O=S(=O)(NCC(c1ccccc1)N1CCC(O)CC1)c1ccc(Cl)cc1 (stereo not drawn),-19.6
20,O=C(N/N=C/c1cn[nH]c1-c1ccccc1)c1ccco1,11.6
21,COc1cccc(CNc2ccccc2O)c1OCc1ccccc1F,-1.17
22,CC(C)[C@H](Nc1ncnc2c1oc1ccccc12)C(=O)O,23.6

# Reference: article PMC4336329 (PLoS ONE, 2015)
